Measured values from PMC6451091.
The other results are listed elsewhere or left out. For some assays here: At the low end of the ranking, values are background and their order means little. For some assays here: Measured with an extract: partners may take part in the binding.

Assays:
Settings in all cases: 20 mM HEPES pH 7.9, 100 mM NaCl, 1 mM DTT, 0.2 mg/mL BSA, 0.02% Triton X-100, 2% milk, 0.4 mg/mL salmon testes DNA; 1 h; temperature not stated; high values mean tight binding; double strand, one strand shown; sequences stand for … in GCCTAGCAC…GTGCTAGGTCTTGATTCGCTTGACGCTGCTG
PU.1 (IVT) = PU.1 (IVT) (UniProt P17947); assay: protein-binding microarray (PBM)
[1] = target: PU.1 (endogenous, THP-1 nuclear extract) (UniProt P17947); assay: nuclear extract protein-binding microarray (nextPBM)
[2] = target: T1, FLI1 (endogenous, THP-1 nuclear extract) (UniProt Q01543); assay: as above
T1 sequence: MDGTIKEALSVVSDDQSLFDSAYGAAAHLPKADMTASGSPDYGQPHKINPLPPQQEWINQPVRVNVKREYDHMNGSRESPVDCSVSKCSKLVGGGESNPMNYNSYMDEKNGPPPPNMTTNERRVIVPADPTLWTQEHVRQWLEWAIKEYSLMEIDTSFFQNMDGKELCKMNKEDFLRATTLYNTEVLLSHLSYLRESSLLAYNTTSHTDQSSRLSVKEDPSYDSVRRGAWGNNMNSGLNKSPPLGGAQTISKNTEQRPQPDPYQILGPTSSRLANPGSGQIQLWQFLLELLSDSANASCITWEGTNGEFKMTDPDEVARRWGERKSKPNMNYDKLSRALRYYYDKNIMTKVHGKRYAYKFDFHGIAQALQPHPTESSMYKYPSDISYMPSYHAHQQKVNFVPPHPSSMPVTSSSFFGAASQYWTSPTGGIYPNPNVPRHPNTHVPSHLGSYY

[3] = system: PU.1 (endogenous, THP-1 nuclear extract) + IRF8 (endogenous, THP-1 nuclear extract); assay: as above

Sequence	binding signal (PU.1 (IVT))	binding signal [1]	binding signal [2]	binding signal [3]
GTATTCACTGCCTGAAACTC	-0.327 z-score	-0.635 z-score	-0.821 z-score	0.855 z-score
CCCATCACATATCTGTATCC	-0.082 z-score	-0.343 z-score	1.03 z-score	-0.236 z-score
AGGTTCAGCCTGGTTATTTT	0.202 z-score	-0.484 z-score	-0.357 z-score	1.33 z-score
TTTCATGGTGTCATGTGAAC	0.0216 z-score	-0.134 z-score	-0.647 z-score	1.59 z-score
TAAACAGTCTGTGGAGATAA	0.087 z-score	-0.218 z-score	-0.791 z-score	-0.704 z-score
AGCCCTGGGCAGCAGCCAGG	-0.841 z-score	-0.0273 z-score	-0.831 z-score	1.83 z-score
GGGACGGCGTTCCCGGCGCG	-0.397 z-score	-0.0533 z-score	0.263 z-score	0.873 z-score
GTCTTATTTCCTCAAAATAG	3.55 z-score	2.68 z-score	1.39 z-score	-1.45 z-score
GTCCAAAGTGGTCCTGGGAA	2.06 z-score	1.51 z-score	1.29 z-score	0.859 z-score
AGCGGCTTCTTCAGAGCACG	-0.0347 z-score	-0.49 z-score	-0.85 z-score	-0.154 z-score
AGAAGCGAGTAGGTGGGGAG	-0.382 z-score	-0.275 z-score	0.237 z-score	1.57 z-score
TTTAATTATATTTTTTAAAT	-0.343 z-score	-0.141 z-score	-0.206 z-score	0.774 z-score
AGAGCCTGACACCGCTGCTC	-0.563 z-score	-0.0817 z-score	-0.0559 z-score	-0.0878 z-score
CAGGGCCATTCCCAGGAAAA	-0.753 z-score	-0.199 z-score	0.841 z-score	-0.214 z-score
CTATGTGCTGTGAAATTACA	0.018 z-score	-0.0807 z-score	-0.191 z-score	0.0519 z-score
CACAGAATATGGAGGAAAAT	0.135 z-score	-0.0327 z-score	0.741 z-score	0.0202 z-score
TTGTATTTTTAGTAGAGACG	-0.142 z-score	-0.398 z-score	-0.154 z-score	-0.695 z-score
TCAAATAAATACTGGAAAAC	-0.248 z-score	-0.276 z-score	0.872 z-score	-1.18 z-score
TCCTCAGTCTGGCTGAGTGA	-0.578 z-score	-0.203 z-score	0.0282 z-score	0.0452 z-score
CTCCACACTCACCATTCTGA	-0.74 z-score	-0.488 z-score	-0.783 z-score	0.493 z-score
AACAGCAACAGGCTTAGGTT	-0.278 z-score	-0.261 z-score	-0.859 z-score	0.78 z-score
GGACTTCTCACTGGGCATAA	0.448 z-score	0.682 z-score	-0.198 z-score	-0.258 z-score
TGATTTGGAGACTAAGGCGC	-0.0204 z-score	-0.483 z-score	-0.54 z-score	-0.783 z-score
TTTGAGTAGCAAGAGGTTAG	-0.0639 z-score	-0.347 z-score	0.122 z-score	0.777 z-score
CAGTTAGGACTCAGTTATTT	-0.555 z-score	-0.158 z-score	-0.511 z-score	-1.14 z-score
GATACCTTGCCAATATTGGA	-0.543 z-score	-0.326 z-score	-0.14 z-score	-0.639 z-score
TGCTTTTACTTATTTGTGCA	-0.536 z-score	-0.483 z-score	0.0784 z-score	-1.36 z-score

Sequence	binding signal (PU.1 (IVT))	binding signal [1]	binding signal [2]	binding signal [3]
GCACATGATTCTGGAAGCTG	-0.133 z-score	0.48 z-score	0.925 z-score	-0.621 z-score
ACTGTTGAACATGAGCAATT	0.0743 z-score	-0.219 z-score	-0.67 z-score	-1.26 z-score
GACGCTGCTGCGTGAAACTA	-0.415 z-score	-0.417 z-score	-0.591 z-score	3.54 z-score
GAATCTGTACTTCTCTTTTT	3.14 z-score	3.68 z-score	0.73 z-score	-0.69 z-score
GGGCAAGTCAGTTAATCTTG	-0.211 z-score	-0.507 z-score	0.15 z-score	0.0499 z-score
ATGGGTTCCTTGAATTTCAG	0.865 z-score	0.708 z-score	0.211 z-score	0.305 z-score
TCATGAAAGGCCAAATGGGT	-0.076 z-score	-0.205 z-score	-0.25 z-score	0.312 z-score
TACAAGCCAGGAAGACAGAC	-0.258 z-score	-0.12 z-score	0.995 z-score	-0.459 z-score
AAGAAAGGGGAAAAGAAAGG	1.16 z-score	0.772 z-score	0.267 z-score	-0.172 z-score
TTTTAAATTGCATGCCATTT	-0.0896 z-score	-0.325 z-score	-0.0864 z-score	-0.173 z-score
AAATGCAGAAGTCATTTAAA	3.68 z-score	3.51 z-score	0.071 z-score	-0.682 z-score
AAGAGGCCGAGGACCACAGC	-0.398 z-score	0.144 z-score	-0.675 z-score	1.06 z-score
TATTTTTTGTGGTTTCCAAA	0.0777 z-score	-0.636 z-score	-0.104 z-score	-0.236 z-score
GACGGCTCCGGCGTCGGGTC	-0.273 z-score	0.0236 z-score	-0.341 z-score	1.19 z-score
CATGAGGATTATTTTAGAAG	-0.261 z-score	-0.719 z-score	-0.531 z-score	-0.554 z-score
AGGTGCCCTTATAGGCAAAG	-0.384 z-score	-0.201 z-score	-0.323 z-score	-1.24 z-score
ACCACCTTATACCTTAATTT	0.00219 z-score	0.0115 z-score	0.375 z-score	0.741 z-score
AGAAACACTGCGTGAAACTG	0.0957 z-score	-0.246 z-score	-0.799 z-score	1.42 z-score
GTGATTTGAGCAAGAAATAA	-0.144 z-score	-0.565 z-score	-0.057 z-score	-1.55 z-score
TGCTTGGCTCTCATTCGCCT	-0.294 z-score	-0.315 z-score	-0.816 z-score	-0.658 z-score
GAGGATTGGTTAATAAAGAT	0.0827 z-score	-0.449 z-score	-0.119 z-score	-0.0703 z-score
GTGAGCTTTTTGTCTTCAAA	-0.296 z-score	-0.239 z-score	-0.337 z-score	-0.0214 z-score
CTGGAGGATCCTTCTGCGCA	0.458 z-score	0.336 z-score	-0.424 z-score	0.342 z-score
TTTTATCAGGAAATGACTGG	0.896 z-score	1.18 z-score	2.75 z-score	-1.3 z-score
CTCAAGGGTGAGTTACATGC	-0.801 z-score	-0.104 z-score	-0.648 z-score	1.23 z-score
GATTGGCCATGCTGACGCTG	-1.02 z-score	-0.445 z-score	-1.02 z-score	-0.514 z-score
